The other results are listed elsewhere or left out. Repeats are few or missing, and single values can be far off.

Some test systems named below: MZ2-MEL; MeWo; RPMI7951; RVH-421; SkMel28; SkMel2; SkMel30; SkMel5; UACC257; UACC62; WM115; WM1716; WM1745; WM3526; WM3619; WM451Lu.
Common to all, as to assay: cell count relative to DMSO control; melanoma cells; higher = more viable cells
Holding throughout (conditions): library dose: low library concentration; 72 h
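Note: cell number obtained by counting DAPI-stained nuclei in high-throughput microscope images with image analysis software, screen run in 1,536-well plates.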

Consider `Nc1ncn([C@H]2C[C@H](O)[C@@H](CO)O2)c(=O)n1` [decitabine] + Oc1cc(-c2nc(-c3ccccc3)[nH]c2-c2ccncc2)ccc1Cl [L779450] (first compound 0.1 µM, partner dose 0.2 µM), for which the cell count in the assay with MZ2-MEL stood at 67.5%; in the assay with MeWo, 95.6%; in the assay on RPMI7951 it was 76.3%; in the assay with RVH-421, 75.9%; in the assay on SkMel28, 84.2%; with SkMel2, 91.2%. In addition, the cell count with SkMel30 worked out at 92.6%; with SkMel5, 106%; in the assay with UACC257, 81.3%; in the assay with UACC62, 60.4%; with WM115, 74%; with WM1716 it was 74.6%. The cell count was found to be 94.8% in the assay on WM1745, 77.1% with WM3526, 75.1% with WM3619 and 86.8% in the assay with WM451Lu.

Regarding `Nc1ccn([C@@H]2O[C@H](CO)[C@@H](O)C2(F)F)c(=O)n1` [gemcitabine] + Oc1nc(-c2ccc(C(F)(F)F)cc2)nc2c1CSCC2 [XAV939] (first compound 0.0004 µM, partner dose 2 µM), the cell count was determined as 92.8% in the assay on MZ2-MEL; 105% with MeWo; 90.6% in the assay on RPMI7951; 83.4% in the assay on RVH-421; 112% in the assay with SkMel28; 106% with SkMel2. In addition, the cell count stood at 119% with SkMel30; 90.7% with SkMel5; 117% in the assay on UACC257; 112% with UACC62; 99.8% in the assay with WM115; 65.7% with WM1716. The cell count was 58.1% in the assay on WM1745, 87.2% with WM3526, 87.7% with WM3619 and 87.8% with WM451Lu.

Consider `Nc1ncn([C@H]2C[C@H](O)[C@@H](CO)O2)c(=O)n1` [decitabine] + NCC(=O)Nc1ccc(-n2nc(C(F)(F)F)cc2-c2ccc3c(ccc4ccccc43)c2)cc1 [OSU03012] (first compound 0.1 µM, partner dose 1 µM), for which the cell count in the assay with MZ2-MEL amounted to 79.8%; in the assay on MeWo it was 63.6%; in the assay on RPMI7951, 97.2%; with RVH-421 it was 69.9%; in the assay on SkMel28, 81.6%; in the assay on SkMel2 it was 89.6%. Further, the cell count turned out to be 60.6% in the assay on SkMel30; 76.9% in the assay with SkMel5; 61.9% in the assay with UACC257; 76.8% with UACC62; 86% in the assay with WM115; 69.6% in the assay on WM1716. The cell count in the assay with WM1745 was 95.8%; in the assay with WM3526, 54.6%; in the assay with WM3619, 113%; with WM451Lu it was 65.3%.

As for `Nc1ccn([C@@H]2O[C@H](CO)[C@@H](O)C2(F)F)c(=O)n1` [gemcitabine] + O=C1NC(=O)/C(=C/c2ccc(-c3ccc(F)cc3O)o2)S1 [AS252424] (first compound 0.0004 µM, partner dose 1 µM), the cell count in the assay with MZ2-MEL came out at 93.3%; in the assay on MeWo it was 107%; with RPMI7951 it was 93.6%; in the assay on RVH-421, 89.4%; with SkMel28, 103%; in the assay on SkMel2 it was 103%. Besides, the cell count came out at 130% in the assay with SkMel30; 104% with SkMel5; 83.1% in the assay on UACC257; 94% with UACC62; 102% in the assay on WM115; 109% in the assay with WM1716. The cell count in the assay on WM1745 was found to be 43.1%; with WM3526 it was 105%; in the assay on WM3619, 43.8%; in the assay on WM451Lu, 109%.

Turning to `CC(=O)c1c(C)c2cnc(Nc3ccc(N4CCNCC4)cn3)nc2n(C2CCCC2)c1=O` [palbociclib] + CCN(CC)CCCCNc1ncc2cc(-c3cc(OC)cc(OC)c3)c(NC(=O)NC(C)(C)C)nc2n1 [PD173074] (first compound 0.04 µM, partner dose 0.1 µM), the cell count in the assay on MZ2-MEL stood at 82.3%; with MeWo it was 81%; with RPMI7951, 77.4%; with RVH-421, 74.1%; with SkMel28, 74.1%; with SkMel2 it was 76.8%. Besides, the cell count was found to be 74.9% in the assay with SkMel30; 66.8% in the assay on SkMel5; 72.9% with UACC257; 75.6% in the assay with UACC62; 71.7% with WM115; 69.5% in the assay on WM1716. Moreover, the cell count in the assay on WM1745 amounted to 70.5%; in the assay on WM3526, 66.1%; in the assay with WM3619, 69.2%; in the assay on WM451Lu, 78.3%.

Take `CC(=O)c1c(C)c2cnc(Nc3ccc(N4CCNCC4)cn3)nc2n(C2CCCC2)c1=O` [palbociclib] + CCCCCCCCCCCC1=C(O)C(=O)C=C(O)C1=O [Embelin] (first compound 0.04 µM, partner dose 1.2 µM): the cell count came out at 94.1% in the assay on MZ2-MEL; 82.7% in the assay on MeWo; 72.2% with RPMI7951; 76.4% in the assay with RVH-421; 61.3% in the assay on SkMel28; 90.4% in the assay with SkMel2. In addition, the cell count with SkMel30 came to 73.5%; with SkMel5, 62.6%; with UACC257, 75.7%; in the assay with UACC62 it was 87.5%; in the assay with WM115, 61.6%; in the assay with WM1716, 62.3%. The cell count is 60.1% in the assay with WM1745, 69.5% in the assay on WM3526, 67% with WM3619 and 65.6% in the assay with WM451Lu.

With `CC(=O)c1c(C)c2cnc(Nc3ccc(N4CCNCC4)cn3)nc2n(C2CCCC2)c1=O` [palbociclib] + COc1cc(N2CCC(N3CCN(C)CC3)CC2)ccc1Nc1ncc(Cl)c(Nc2ccccc2S(=O)(=O)C(C)C)n1 [NVP-TAE684] (first compound 0.04 µM, partner dose 0.08 µM), the cell count in the assay with MZ2-MEL is 86%; in the assay with MeWo, 63.4%; in the assay on RPMI7951, 59.3%; with RVH-421, 96.2%; in the assay with SkMel28, 71.4%; with SkMel2, 76.8%. The cell count in the assay with SkMel30 amounted to 59%; in the assay with SkMel5, 72.1%; in the assay with UACC257, 54.5%; in the assay with UACC62, 70.4%; with WM115, 64.7%; in the assay with WM1716 it was 56.6%. Besides, the cell count in the assay with WM1745 amounted to 71.3%; in the assay on WM3526, 50.7%; in the assay on WM3619, 62.4%; in the assay with WM451Lu, 61.9%.

Take `Nc1nc(F)nc2c1ncn2[C@@H]1O[C@H](CO)[C@@H](O)[C@@H]1O` [fludarabine] + Cc1cc(N2CCOCC2)cc2[nH]c(-c3c(NC[C@@H](O)c4cccc(Cl)c4)cc[nH]c3=O)nc12 [BMS536924] (first compound 0.2 µM, partner dose 0.2 µM): the cell count with MZ2-MEL turned out to be 110%; in the assay with MeWo it was 27.9%; in the assay on RPMI7951, 112%; in the assay with RVH-421, 91.8%; with SkMel28, 68.6%; in the assay with SkMel2, 2.74%. Besides, the cell count in the assay on SkMel30 was 11.8%; in the assay on SkMel5 it was 39.4%; in the assay on UACC257, 88%; in the assay with UACC62, 81.7%; in the assay on WM115, 103%; with WM1716, 119%. Also, the cell count in the assay on WM1745 turned out to be 91.8%; with WM3526 it was 19.6%; with WM3619 it was 82.1%; with WM451Lu, 30.4%.

Regarding `Nc1ccn([C@@H]2O[C@H](CO)[C@@H](O)C2(F)F)c(=O)n1` [gemcitabine] + Cn1cncc1[C@@](N)(c1ccc(Cl)cc1)c1ccc2c(c1)c(-c1cccc(Cl)c1)cc(=O)n2C [tipifarnib] (first compound 0.0004 µM, partner dose 0.01 µM), the cell count is 101% in the assay with MZ2-MEL; 96.2% with MeWo; 99% with RPMI7951; 100% with RVH-421; 108% in the assay on SkMel28; 82.2% in the assay with SkMel2. Further, the cell count in the assay on SkMel30 was 114%; in the assay with SkMel5, 102%; in the assay on UACC257 it was 82%; in the assay on UACC62, 78.4%; in the assay with WM115, 95.9%; with WM1716 it was 93.2%. For the same compound, the cell count in the assay with WM1745 came out at 76.2%; in the assay with WM3526 it was 79.4%; in the assay with WM3619, 46.9%; with WM451Lu, 91.6%.

The values are drawn from the supplement of paper PMC4604168 (melanoma cell lines).
